Test results taken from PubChem BioAssay AID1259400 (National Center for Advancing Translational Sciences (NCATS), 2018).
Several values for one entry are separate records, joined by “and”; a condition that tells them apart may be missing. Identical values can stand only once. The whole screen tested about 350,000 compounds, of which about 2,100 (0.6%) were called active. This list was built around the results that the source calls inconclusive (neither active nor inactive); the mix of calls is not that of the screen.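 How the source made its calls: active means activity change of -60% or lower, but not beyond a set lower limit; inconclusive means change between -60% and -40%, or beyond the set limit; inactive means change above -40%.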 The source holds several records for some structures; these can differ, active in one and inactive in another.
On the % scale 0 is the no-effect control and ±100 the full control effect.

What follows are molecules tested against Relaxin receptor 1 (Homo sapiens) (UniProt Q9HBX9) (assay: qHTS Assay for Antagonists of the Relaxin Receptor RXFP1). Conditions: HEK293-RXFP1, relaxin-stimulated cAMP HTRF, 30 min; at 57.5 µM; stronger effect = lower value.
Chain of UniProt Q9HBX9 (Q9HBX9 whole entry, looked up): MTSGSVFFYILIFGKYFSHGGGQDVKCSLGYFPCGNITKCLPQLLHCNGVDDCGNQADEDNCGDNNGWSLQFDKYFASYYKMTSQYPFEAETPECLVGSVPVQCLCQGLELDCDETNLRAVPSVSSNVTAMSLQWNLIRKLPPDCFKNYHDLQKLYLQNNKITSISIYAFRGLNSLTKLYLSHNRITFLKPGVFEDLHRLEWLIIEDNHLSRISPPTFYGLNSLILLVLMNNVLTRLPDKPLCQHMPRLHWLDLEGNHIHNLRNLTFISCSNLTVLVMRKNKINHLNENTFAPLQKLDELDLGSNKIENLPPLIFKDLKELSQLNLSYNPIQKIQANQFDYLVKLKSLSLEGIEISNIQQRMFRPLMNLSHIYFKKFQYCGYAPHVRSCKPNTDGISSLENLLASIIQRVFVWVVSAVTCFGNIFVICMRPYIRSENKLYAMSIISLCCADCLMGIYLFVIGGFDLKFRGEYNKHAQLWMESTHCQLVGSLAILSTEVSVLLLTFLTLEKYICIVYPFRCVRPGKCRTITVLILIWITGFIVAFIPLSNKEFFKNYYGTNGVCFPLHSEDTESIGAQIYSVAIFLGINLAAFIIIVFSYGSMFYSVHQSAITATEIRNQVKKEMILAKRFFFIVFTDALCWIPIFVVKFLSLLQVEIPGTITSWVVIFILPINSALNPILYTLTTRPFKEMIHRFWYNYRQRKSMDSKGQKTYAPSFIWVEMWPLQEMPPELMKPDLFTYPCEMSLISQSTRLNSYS
For `CC1CCC2(CC1)NC(=O)N(CC(=O)NC(C)c1ccc(F)c(F)c1)C2=O` (centres undefined), the activity change, negative = inhibition was inactive: 10.2%. For `CCCOc1ccccc1C(=O)Nc1nc2c(s1)CCCC2`, the activity change, negative = inhibition was inconclusive: -43.3%. For `Cc1ccc(-n2nc(C)c(C(=O)NCCCN3CCN(c4ccccc4F)CC3)c2-n2cccc2)cc1`, the activity change, negative = inhibition was inconclusive: -57.6%. In the case of `Cc1cccc(N2CCN(C(=O)c3cccc(-n4c(C)nc5cccnc54)c3)CC2C)c1` (centres undefined), the activity change, negative = inhibition is reported as inconclusive: -46.1%. In the case of `CCCc1ccc2oc(C(=O)NCCc3nc(C(=O)OCC)cs3)c(C)c2c1`, the activity change, negative = inhibition is reported as active: -78.6%. In the case of `Cc1ccc(CCNC(=O)c2ccc(CNS(=O)(=O)c3ccc(F)cc3)cc2)cc1`, the activity change, negative = inhibition is reported as active: -70.8%. With `Cc1ccc(C)c(NS(=O)(=O)c2ccc3c(c2)CCCN3C(=O)C2CCC2)c1` the activity change, negative = inhibition was active: -63.4%. `Cc1ccc(NC(=O)N2CCc3c([nH]c4ccccc34)C2c2ccccc2F)c(Cl)c1` (centres undefined) was tested, and the activity change, negative = inhibition was inconclusive: -53.7%. `CCCC(C(=O)Nc1cc(C)c(Cl)cc1OC)N1Cc2ccccc2C1=O` (centres undefined) was tested, and the activity change, negative = inhibition was inconclusive: -49.4%. In the case of `CCOC(=O)c1ccc(NC(=O)C2CCCN(c3cnccn3)C2)cc1` (centres undefined), the activity change, negative = inhibition is reported as inactive: -30.3% and active: -61.4%. In the case of `O=C(CCCn1c(=S)[nH]c2ccc(Br)cc2c1=O)NCC1CCCO1` (centres undefined), the activity change, negative = inhibition is reported as inconclusive: -44.9%. With `Cc1cc(C)cc(OC(C)C(=O)Nc2nc3c(s2)CCCC3)c1` (centres undefined) the activity change, negative = inhibition was active: -103%. With `S=C1NC2=C(CCC/C2=C\c2ccc(Cl)cc2)C(c2ccc(Cl)cc2)N1` (centres undefined) the activity change, negative = inhibition was inconclusive: -57.3%. In the case of `CCc1ccc2occ(CC(=O)NCc3ccccc3)c2c1`, the activity change, negative = inhibition is reported as inconclusive: -44.4%. With `CCNc1nc(N)c(C(=O)C23CC4CC(CC(C4)C2)C3)s1` the activity change, negative = inhibition was active: -67.6%. `COC(=O)CSc1[nH]c2ccc(F)cc2c1[N+](=O)[O-]` was tested, and the activity change, negative = inhibition was inconclusive: -54.6%. In the case of `CCOC(=O)c1ccc(NC(=O)C(CC)Sc2nncn3c2cc2oc(C)cc23)cc1` (centres undefined), the activity change, negative = inhibition is reported as active: -79.5%. `CSc1cccc(NC(=O)c2ccc3c(c2)CCCN3S(C)(=O)=O)c1` was tested, and the activity change, negative = inhibition was inconclusive: -42.6%. For `O=C(CNC(=O)OCc1ccccc1)NC1CCCCCC1`, the activity change, negative = inhibition was inactive: 13.8%. With `Cc1ccc(S(=O)(=O)c2cn(C)c3cc(N4CCN(C)CC4)c(F)cc3c2=O)c(C)c1` the activity change, negative = inhibition was inconclusive: -52%. With `Cc1cccc(C(=O)NCc2cn3cccc(C)c3n2)c1` the activity change, negative = inhibition was inactive: 6.24%. `O=c1cc(N2CCN(c3ccc(F)cc3)CC2)[nH]c(=O)n1-c1cccc(Br)c1` was tested, and the activity change, negative = inhibition was inactive: -9.38%. `O=C1/C(=C/c2cccnc2)Oc2cc(OS(=O)(=O)c3ccccc3)ccc21` was tested, and the activity change, negative = inhibition was inconclusive: -43.3%. With `COc1ccc(-n2ncc3c2CC(C)(C)CC3NC(=O)C2=CC(=O)CC(C)(C)O2)cc1` (centres undefined) the activity change, negative = inhibition was inconclusive: -49.1%. With `CCc1ccccc1N(CC(=O)NCc1ccco1)C(=O)c1snc(C(N)=O)c1N` the activity change, negative = inhibition was inconclusive: -42.8%. In the case of `CC(=O)N(\C=C/C=C/C=C1\Sc2ccccc2C1=O)c1ccccc1`, the activity change, negative = inhibition is reported as inconclusive: -57.3%. `Cc1c(N2CCCC2)cc2c(c1N)C(C)(C)CC2(C)C` was tested, and the activity change, negative = inhibition was active: -70.7%. In the case of `COc1ccc(-n2c(SCC(=O)Nc3cccc4ccccc34)nc(O)cc2=O)cc1`, the activity change, negative = inhibition is reported as active: -65.6%. For `O=C(NNC(=O)C1CCN(S(=O)(=O)c2c(Cl)cccc2Cl)CC1)c1ccccc1O`, the activity change, negative = inhibition was inconclusive: -58.8%. With `S=c1[nH]nc(Cc2ccccc2)n1-c1cccc2ccccc12` the activity change, negative = inhibition was inconclusive: -47.8%. For `COc1ccccc1C(=O)NCCc1csc(-c2ccc(C(F)(F)F)cc2)n1`, the activity change, negative = inhibition was inconclusive: -59.6%. In the case of `CC(C)c1ccc(Nc2nnc(SC3CCOC3=O)s2)cc1` (centres undefined), the activity change, negative = inhibition is reported as inconclusive: -47.2%. With `O=C(CCNC(=O)c1ccc(Br)cc1)Nc1ccccc1N1CCCCC1` the activity change, negative = inhibition was inconclusive: -47.3%. With `OC(CN1CCN(C(c2ccccc2)c2ccccc2)CC1)c1ccccc1` (centres undefined) the activity change, negative = inhibition was inconclusive: -55.1%. `COc1ccc(/C=C(\C#N)C(=O)c2c(C)[nH]c3ccccc23)cc1OC` was tested, and the activity change, negative = inhibition was inconclusive: -59.7%. With `COC(=O)C1=C(C)NC(C)=C(C(=O)OCCCN2CCC(c3ccccc3)(c3ccccc3)CC2)C1c1cccc([N+](=O)[O-])c1` (centres undefined) the activity change, negative = inhibition was inconclusive: -50.7%. With `Cc1ccc(NC(=O)Cn2sc3ccccc3c2=O)cc1` the activity change, negative = inhibition was inconclusive: -44.8%. In the case of `Cc1ccc(NC(=O)CN(C)C(=O)Cn2c(=O)oc3ccccc32)cc1`, the activity change, negative = inhibition is reported as inconclusive: -52.1%. With `O=C(NCc1ccccc1F)c1cccc(NC(=O)N2CCSc3ncccc32)c1` the activity change, negative = inhibition was inconclusive: -48.3%. For `CC1CCCN(CCCNC(=O)CN2C(=O)COc3ccc(S(=O)(=O)N4CCOCC4)cc32)C1` (centres undefined), the activity change, negative = inhibition was inconclusive: -40.9%. For `CCc1ccc(C(=O)COC(=O)c2cccnc2Cl)cc1`, the activity change, negative = inhibition was inconclusive: -43.9%. For `CC1CN(C(=O)c2cc(-c3ccc(Cl)s3)nc3ccccc23)CC(C)O1` (centres undefined), the activity change, negative = inhibition was inconclusive: -40.9%. With `CCn1c(SCc2ccccc2Cl)nc(=O)c2c(C(=O)OC)cc(C3CC3)nc21` the activity change, negative = inhibition was inconclusive: -52.3%. `O=c1[nH]cnc2c1c(-c1ccccc1)cn2-c1cccc(Cl)c1` was tested, and the activity change, negative = inhibition was active: -112%. For `Clc1ccc(CCNC(c2nnc(-c3ccccc3)o2)c2ccccc2Cl)cc1` (centres undefined), the activity change, negative = inhibition was inactive: -36.6%. `O=C(CCC(=O)N1CCN(Cc2ccccc2)CC1)Nc1nnc(C2CCCCC2)s1` was tested, and the activity change, negative = inhibition was inconclusive: -52.1%. `CC(C)(C)C(=O)CSc1nc2ccsc2c(=O)n1Cc1ccccc1F` was tested, and the activity change, negative = inhibition was inconclusive: -56.1%. `O=C(O)CCNc1ccc(NCCC(=O)O)c2c1C(=O)c1ccccc1C2=O` was tested, and the activity change, negative = inhibition was active: -62.6%. With `Cc1ccc(S(=O)(=O)N(CC(=O)Nc2cccc([N+](=O)[O-])c2)C2CCCCC2)cc1` the activity change, negative = inhibition was inactive: -21.1%. With `O=C(Cc1ccccc1F)Nc1nc(-c2ccc(F)c(F)c2)cs1` the activity change, negative = inhibition was inconclusive: -49.2%. With `C=CCn1c(=S)[nH]c2ccc(Br)cc2c1=O` the activity change, negative = inhibition was inconclusive: -43.3%. For `CC(C)CS(=O)(=O)c1oc(-c2ccc(F)cc2)nc1S(=O)(=O)c1ccccc1`, the activity change, negative = inhibition was active: -81.8%. For `CCOc1ccc(N2C(=O)S/C(=C\c3ccc(O)c(OCC)c3)C2=O)cc1`, the activity change, negative = inhibition was inactive: 0.142%. With `S=C(Nc1ccc(Br)cc1)NC1CCCCC1` the activity change, negative = inhibition was inconclusive: -40.6%.
